Test results as given in PubChem BioAssay AID463173 (ICCB-Longwood Screening Facility, Harvard Medical School, 2010).
Hit rate of the full screen: of about 52,000 compounds, about 1,700 (3.3%) were called active. Cut-off read from the data, not from the text of the source: active = survival mostly below about 52% (no sharp cut-off); inactive = mostly above about 56%. The list shows a part of the results.

Test system: Wild type
Test: S. aureus survival, RN4220 and DeltatarO strains – OD600, teichoic acid synthesis inhibitors, primary screen (AID 463173)
Conditions: S. aureus RN4220 wild type/DeltatarO growth, OD600, 18 h, hits give low values, screened at 18.75 µg/mL (by protocol)

| SMILES | survival |
| --- | --- |
| Cc1cc(C)cc(NC(=O)Cn2nc(N3CCN(c4ccccc4)CC3)ccc2=O)c1 | inactive: 69% |
| COc1cc(CN(C(=O)c2ccccc2Br)c2ccccn2)cc(OC)c1OC | inactive: 91% |
| COc1ccc(S(=O)(=O)NCCc2sc(-c3cccnc3)nc2C)cc1OC | inactive: 75% |
| COc1ccc2c(c1)c(=O)c(S(=O)(=O)c1ccc(Cl)cc1)cn2Cc1cc(C)ccc1C | inactive: 81% |
| Cc1ccc(NC(=O)CN2C(=O)C(c3ccc(C)cc3)=NC23CCCCCC3)cc1 | inactive: 73% |
| Cc1ccc(C)c(N2CCN(C(=O)CCS(=O)(=O)c3ccc4c(c3)oc(=O)n4C)CC2)c1 | inactive: 115% |
| CCc1ccc(NC(=O)c2cccc(N3CCCS3(=O)=O)c2)cc1 | inactive: 68% |
| CCN(CC)C(=O)c1sc2c(c1C)c(=O)n(CCc1ccccc1)c(=O)n2Cc1ccc(C)cc1 | inactive: 71% |
| CCOc1cc2c(cc1OCC)C(CC(=O)OC)N(C(=O)Nc1cc(OC)ccc1OC)CC2 (configuration not stated) | inactive: 75% |
| CCN1CCSc2ccc(C(=O)NCc3ccc(F)cc3)cc21 | inactive: 118% |
| CCCCNC(=O)c1cc(-c2cccnc2)nc2ccc(S(=O)(=O)NCCCC)cc12 | inactive: 65% |
| COc1ccc(NCc2cccn2-c2nnc(N3CCOCC3)s2)cc1OC | inactive: 72% |
| Cc1ccc(CNC(=O)CCSCc2cnn(-c3ccccc3)c2-n2cccc2)cc1 | inactive: 77% |
| COc1ccc(CNC(=O)Cn2ncc3c(=O)oc4ccccc4c32)c(OC)c1 | inactive: 89% |
| Cc1csc2nc(COC(=O)c3cccc(NC(=O)COc4ccccc4Cl)c3)cc(=O)n12 | inactive: 78% |
| CCc1cccc(NC(=O)Cc2nc(-c3ccc(OC)cc3)no2)c1 | inactive: 99% |
| COCCCNC(=O)c1nn(C)c2c1CS(=O)(=O)c1ccccc1-2 | inactive: 106% |
| COc1ccc(-c2cn3c(n2)sc2cc(C(=O)NC(C)C45CC6CC(CC(C6)C4)C5)ccc23)cc1 (configuration not stated) | inactive: 93% |
| COc1ccc(CNC(=O)CC2N=C3c4ccccc4N=C(SCC(=O)Nc4ccc(C(C)C)cc4)N3C2=O)cc1 (configuration not stated) | inactive: 97% |
| COC(=O)CCCn1c(-c2ccc(C)cc2)c(C)n2c3c(=O)n(C)c(=O)n(C)c3nc12 | inactive: 79% |
| O=C(CSc1nnc2[nH]c(=O)cc(-c3ccccc3)n12)Nc1ccc(OC(F)(F)F)cc1 | inactive: 74% |
| COCc1cc(C)nc2sc3c(c12)NC(c1ccccc1C(=O)O)N(c1cccc(C(F)(F)F)c1)C3=O (configuration not stated) | inactive: 113% |

| SMILES | survival |
| --- | --- |
| COc1cc([N+](=O)[O-])ccc1NC(=O)c1nc2ccccc2n(C)c1=O | inactive: 82% |
| Cc1ccc(S(=O)(=O)c2nc(-c3cccc(Br)c3)oc2N2CCCCCC2)cc1 | inactive: 55% |
| CCOC(=O)C1CCN(S(=O)(=O)c2cc3c4c(c2)C(C)C(=O)N4CCC3)CC1 (configuration not stated) | inactive: 88% |
| Cc1cccc(C(=O)Nc2c(C(=O)N3CCN(c4ccc(F)cc4)CC3)oc3ccccc23)c1 | inactive: 70% |
| CC1Cc2cc(C(=O)NC3CCCCC3)ccc2O1 (configuration not stated) | inactive: 111% |
| CCn1ccc2c(OCC(=O)Nc3ccc(C)c(Cl)c3)cccc2c1=O | inactive: 47% |
| COc1cccc(N2CCN(C(=O)CCSCc3ccccc3F)CC2)c1 | inactive: 75% |
| CCN(CC)c1cc(C)c2cc(NC(=O)c3cc(OC)cc(OC)c3)ccc2n1 | inactive: 65% |
| Cc1ccc(S(=O)(=O)N(CC(=O)Nc2ccc(F)cc2F)Cc2ccc(F)cc2)cc1 | inactive: 79% |
| Cc1cc(=O)n(Cc2c(F)cccc2Cl)c2c1c(C)nn2-c1cccc(F)c1 | inactive: 90% |
| O=C(Cc1ccc(Cl)cc1)NCC(c1cccs1)S(=O)(=O)c1ccccc1 (configuration not stated) | inactive: 66% |
| CCCSc1ncc(Cl)c(C(=O)Nc2sc(C(C)=O)c(C)c2C(=O)OCC)n1 | inactive: 80% |
| COc1ccccc1C(=O)Nc1cccc(C(=O)OCc2cc(=O)n3c4c(sc3n2)CCCC4)c1 | inactive: 79% |
| CCOc1ccc(NC(=O)Cn2c(=O)n(CC3CCC(C(=O)NCCc4ccccc4)CC3)c(=O)c3ccccc32)cc1 (configuration not stated) | inactive: 73% |
| COc1ccc(NC(=O)CSc2oc(-c3ccco3)nc2S(=O)(=O)c2ccc(C)cc2)c(OC)c1 | inactive: 70% |
| CC(C)NC(=O)C1CCN(S(C)(=O)=O)CC1 | inactive: 109% |
| CC(=O)Nc1ccc(NC(=O)c2cc(CN3CCCC3)on2)cc1 | inactive: 80% |
| COc1cc(C(=O)NC(c2ccccc2Cl)c2cc(Cl)c3cccnc3c2O)cc(OC)c1OC (configuration not stated) | inactive: 100% |
| Cc1ccc(C)c(NC(=O)CSc2nnc3[nH]c(=O)cc(-c4ccccc4)n23)c1 | inactive: 119% |
| CC(C)(C)OC(=O)N1CCC(N2CCN(Cc3ccccc3)C(=O)C2=O)CC1 | inactive: 89% |
| Cc1onc(-c2ccccc2Cl)c1C(=O)Oc1ccccc1F | inactive: 71% |
| CCOC(=O)c1ccccc1NC(=O)NCc1c(-n2cccc2)sc2c1CCCC2 | inactive: 77% |

| SMILES | survival |
| --- | --- |
| CCOc1ccc(NC(=O)C(CC(C)C)N2Cc3ccccc3C2=O)cc1 (configuration not stated) | inactive: 134% |
| Cc1c(CNC(C)CCc2ccccc2)c(C(=O)O)c(C)n1Cc1ccc(F)cc1 (configuration not stated) | inactive: 93% |
| Cc1nc2ccccc2c(=O)n1/N=C1\C(=O)N(C)c2ccccc21 | inactive: 108% |
| CN(C)S(=O)(=O)c1ccc2c(c1)N(CC(=O)Nc1cccc(C(F)(F)F)c1)C(=O)CS2 | inactive: 71% |
| CC(=O)Nc1ccccc1OC(=O)N1CCOCC1 | inactive: 103% |
| COc1cccc(C2c3c(oc4cc(C)cc(C)c4c3=O)C(=O)N2CCc2ccc(OC)c(OC)c2)c1 (configuration not stated) | inactive: 87% |
| COc1ccc(NC(=O)CCS(=O)(=O)c2nc(-c3cccs3)cc(C(F)(F)F)n2)cc1 | inactive: 73% |
| CCCc1cc(=O)n2c(C(=O)Nc3ccc(OCC)cc3)c(C(=O)Nc3ccc(C)cc3)sc2n1 | inactive: 84% |
| CCc1nc2ccccc2n1CCO | inactive: 101% |
| COc1ccc(CNc2nc(-c3ccccc3)nn2S(=O)(=O)c2ccccc2)cc1 | active: 4% |
| CN(CC(=O)NCc1ccc(Cl)cc1)S(=O)(=O)c1ccc2[nH]c3c(c2c1)CCCC3 | inactive: 99% |
| CC(C(=O)O)N1c2cccc3cccc(c23)S1(=O)=O (configuration not stated) | inactive: 99% |
| CCn1c(SCc2ccccc2C)nc(=O)c2c(C(=O)OC)cc(C3CC3)nc21 | inactive: 70% |
| COc1ccccc1CNC(=O)CCC1N=C2c3ccccc3N=C(SCC(=O)Nc3ccc(F)cc3)N2C1=O (configuration not stated) | inactive: 91% |
| Cc1ccc2c(c1)c1c(c(=O)n(-c3cccc(Cl)c3)c(=O)n1CC(=O)NCCC1=CCCCC1)n2C | inactive: 67% |
| O=C(Nc1nnc(-c2cc(Cl)ccc2Cl)o1)c1ccc2c(c1)OCCO2 | inactive: 72% |
| Cc1cc(=O)oc2cc(OCC(=O)NCc3ccco3)ccc12 | inactive: 93% |
| COc1ccc(-n2c(Cc3ccccc3)nnc2SCc2nc(-c3cccs3)no2)cc1 | inactive: 77% |
| O=C(CCCc1ccccc1)N1CCN(c2ccccn2)CC1 | inactive: 87% |
| O=c1cc(CSc2ncn[nH]2)[nH]c2ccc(F)cc12 | inactive: 80% |
| CCOC(=O)C1CCC(CN(Cc2ccc(OC)cc2)S(=O)(=O)c2ccc(F)c(C(=O)Nc3ccc(C)c(C)c3)c2)CC1 (configuration not stated) | inactive: 73% |
| CCc1ccc(NS(=O)(=O)c2ccc3oc(=O)c4ncn(CC)c4c3c2)cc1 | inactive: 96% |

| SMILES | survival |
| --- | --- |
| CCCc1nc2ccc(NC(=O)c3ccco3)cc2c(=O)n1Cc1ccccc1Cl | inactive: 101% |
| CCC1CN(C(=O)N2CCC(C(=O)NCCc3cc(OC)ccc3OC)CC2)c2ccccc2O1 (configuration not stated) | inactive: 81% |
| O=C(NN=C1CCCCC1)c1n[nH]c2c1CCC2 | inactive: 111% |
| CCN(CC)S(=O)(=O)c1ccc2c(c1)N(CC(=O)N1CCN(c3cccc(Cl)c3)CC1)C(=O)CO2 | inactive: 71% |
| O=C(CN1C(=O)c2ccccc2C1=O)Nc1cccnc1 | inactive: 102% |
| CN(C)C1(CNC(=O)COc2ccc([N+](=O)[O-])cc2)CCCCC1 | inactive: 107% |
| COc1cccc(-n2cc(C(=O)Nc3cccc(C(F)(F)F)c3)c3ccccc3c2=O)c1 | inactive: 88% |
| CC(C)Oc1ccc(CNC(=O)c2ccc(CS(=O)c3cccc(Cl)c3)o2)cc1 (configuration not stated) | inactive: 90% |
| COc1ccccc1N1CCN(C(=O)Cn2ncc3ccsc3c2=O)CC1 | inactive: 127% |
| Cc1ccc(NC(=O)N2CCc3cc(S(=O)(=O)N4CCC(C)CC4)ccc32)cc1 | inactive: 119% |
| O=C(Cn1nnc(-c2ccccc2NC(=O)c2cnccn2)n1)Nc1ccc2c(c1)OCCO2 | inactive: 117% |
| CCN(C(=O)Cn1c(=O)n(CCCS(=O)(=O)C2CCCCC2)c(=O)c2ccccc21)c1cccc(C)c1 | inactive: 112% |
| CCn1c(CN2CCOCC2)nc2cc(NC(=O)c3ccccc3[N+](=O)[O-])ccc21 | inactive: 81% |
| CC1CCN(C(=O)Cn2c(=O)n(CCCCCC(=O)NCc3ccccc3Cl)c(=O)c3sccc32)CC1 | inactive: 94% |
| CC(=O)Nc1cc(-c2nc3cc(Cl)ccc3o2)ccc1C | inactive: 86% |
| CCn1cnc2sc(C(=O)Nc3ccccc3)c(C)c2c1=O | inactive: 107% |
| Cc1ccc(Cl)cc1Nc1nn2c(=O)c3ccc(C(=O)Nc4ccc(F)cc4)cc3nc2s1 | inactive: 113% |
| Cc1ccc(NC(=O)CSCC(=O)O)cc1 | inactive: 103% |
| Cc1cc(Cl)ccc1NC(=O)Cn1nc(C)c2c(C)n(-c3ccccc3)nc2c1=O | inactive: 45% |
| CCN(CC)CC(=O)Nc1ccc(-c2ccc(NC(=O)CN(CC)CC)cc2)cc1 | inactive: 104% |
| Cc1[nH]n(-c2ccccc2)c(=O)c1C(c1cc(Cl)ccc1O)c1c(C)[nH]n(-c2ccccc2)c1=O | inactive: 60% |
